“And” between values parts separate entries of the source, which are not always exact repeats. Identical values can stand only once. This list was built around the results that the source calls inconclusive (neither active nor inactive); the mix of calls is not that of the screen. For some of these results: Potencies beside an inconclusive call are fits to weak or partial responses and may not hold up. The source made the active and inactive calls. Unless noted, calls come from the whole dose curve; as a rule, active = well fitted curve in the direction sought with a large enough effect in the repeat runs; inconclusive = weak or mixed curves; inactive = no such curve, though single readings can be large; an effect the other way counts as inactive or inconclusive.
Tests used:
[1] = qHTS assay for identifying genotoxic compounds that show differential cytotoxicity against isogenic chicken DT40 cell lines with known DNA damage response pathways - Rad54/Ku70 mutant cell line (AID 743015); conditions: DT40 Rad54/Ku70 mutant viability, CellTiter-Glo, 40 h; activity change, negative = cytotoxicity: at 66.8 µM (top of the series); note: nearly all actives have a fitted effect of over 60% in size; note: potency is the fitted concentration of half-maximal effect
[2] = target: Estrogen receptor (Homo sapiens) (UniProt P03372); assay: qHTS assay to identify small molecule antagonists of the estrogen receptor alpha (ER-alpha) signaling pathway (AID 743069; active = well fitted curve in the direction sought with a large enough effect in the signal ratio in the repeat runs, not every such curve was filed as active; inconclusive = weak or mixed curves, or effect the other way; inactive = no such curve, though single readings can be large or run the other way; the % refers to the signal ratio; note: potency is the fitted concentration of half-maximal effect; for activity, negative = inhibition: % is set by controls: 0 for no effect and ±100 for the full control effect); conditions: HEK293 ER-alpha-UAS-bla, beta-lactamase ratio, antagonist mode; activity, negative = inhibition: at 69.4 µM (top of the series) unless noted
How it was run: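 HEK293 ER-alpha-UAS-bla GripTite cells, held overnight in 2% charcoal-stripped FBS, 5,000 cells/well, preincubated 4 h, then compound plus 17beta-estradiol for 18 h at 37C. Beta-lactamase read by LiveBLAzer B/G FRET substrate, 2 h at room temperature.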

[3] = qHTS assay to identify small molecule antagonists of the vitamin D receptor (VDR) signaling pathway - cell viability counter screen (AID 743225); conditions: VDR-bla HEK293T viability, CellTiter-Glo luminescence, 16 h; viability change, negative = cytotoxic: at 61 µM (top of the series) unless noted; note: nearly all actives have a fitted effect of over 50% in size; note: potency is the fitted concentration of half-maximal effect
How it was run: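 Cytotoxicity toward the VDR-bla HEK 293T line was scored by ATP-based CellTiter-Glo luminescence, read in the wells already used for the beta-lactamase readout after 16 h compound treatment under 3 nM 1-alpha,25-dihydroxyvitamin D3 stimulation.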

[4] = qHTS assay to identify small molecule agonists of H2AX - cell viability counter screen (AID 1224847; calls by dose curve; note: nearly all actives have a fitted effect of over 30% in size; note: potency is the fitted concentration of half-maximal effect; for activity change, negative = cytotoxicity: top concentration of the series differs between compounds; % is set by controls: 0 for no effect and ±100 for the full control effect)
How it was run: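 Viability of CHO-K1 (wild type) cells after 3 hr compound exposure was measured by CellTiter-Glo luminescence.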

[5] = qHTS RealTime-Glo MT Cell Viability Assay in HEK293 cells - 32 hour (AID 1224868); note: potency is the fitted concentration of half-maximal effect; nearly all actives have a fitted effect of over 50% in size
How it was run: (§1)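 HEK293 cells seeded with NanoLuc/prosubstrate reagent, rested 5 h at 37 C, then dosed and kept at 37 C up to 40 h. Nonlytic real-time luminescence from viable cells read at 0, 8, 16, 24, 32 and 40 h.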

[6] = qHTS RealTime-Glo MT Cell Viability Assay in HEK293 cells - 16 hour (AID 1224872); note: nearly all actives have a fitted effect of over 50% in size; note: potency is the fitted concentration of half-maximal effect
How it was run: as §1

[7] = qHTS RealTime-Glo MT Cell Viability Assay in HEK293 cells - 24 hour (AID 1224886); note: nearly all actives have a fitted effect of over 50% in size; note: potency is the fitted concentration of half-maximal effect; for activity change, negative = cytotoxicity: top concentration of the series differs between compounds; % is set by controls: 0 for no effect and ±100 for the full control effect
How it was run: as §1

[8] = target: Estrogen receptor beta (Homo sapiens) (UniProt Q92731); assay: qHTS assay to identify small molecule agonists of the estrogen receptor beta (ER-beta) signaling pathway (AID 1259377; active = well fitted activation curve with a large enough effect in the signal ratio in the repeat runs, not every such curve was filed as active; inconclusive = weak or mixed curves, or effect the other way; the % refers to the signal ratio; note: % is set by controls: 0 for no effect and ±100 for the full control effect); conditions: ER-beta-UAS-bla HEK293T, beta-lactamase FRET ratio, 16 h; activation: at 92.4 µM (top of the series) unless noted
How it was run: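 Measured by fluorescence intensity from a B/G FRET beta-lactamase substrate (2 h, room temperature) in ER-beta-UAS-bla HEK293T cells treated with DMSO-dissolved compounds for 16 hr at 37C and 5% CO2.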

[9] = qHTS assay to identify small molecule agonists of the estrogen receptor beta (ER-beta) signaling pathway - cell viability counter screen (AID 1259380); note: nearly all actives have a fitted effect of over 30% in size; note: potency is the fitted concentration of half-maximal effect
How it was run: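 Viability of ER-beta-UAS-bla HEK293T cells was determined by CellTiter-Glo luminescence following 16 hr treatment with test compounds at 37C.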

[10] = target: Nuclear receptor subfamily 1 group I member 2 (Homo sapiens) (UniProt O75469); assay: Human pregnane X receptor (PXR) small molecule agonists, qHTS assay (AID 1346982); note: potency is the fitted concentration of half-maximal effect; nearly all actives have a fitted effect of over 35% in size
How it was run: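 Luminescence (ONE-Glo, 30 min RT) after 24 hr compound exposure of PXR-Luc HepG2 cells; cells rested 5 hr post-plating in 5% charcoal-stripped FBS medium.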

[11] = qHTS assay for small molecule agonists of the p53 signaling pathway (AID 651631; calls by dose curve; note: % is set by controls: 0 for no effect and ±100 for the full control effect; nearly all actives have a fitted effect of over 15% in size); conditions: HCT-116 p53RE-bla reporter, beta-lactamase FRET ratio, 16 h; activation: at 73.3 µM (top of the series) unless noted
How it was run: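 Fluorescence intensity from cleaved LiveBLAzer B/G substrate (2 h, room temperature) served as the signal. Beforehand, HCT-116 reporter cells bearing p53 response elements were treated 16 h at 37 °C with DMSO-dissolved compounds.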

[12] = qHTS assay to identify small molecule agonists of the farnesoid-X-receptor (FXR) signaling pathway - cell viability counter screen (AID 743218); conditions: FXR-bla HEK293T viability, CellTiter-Glo luminescence, 16 h; viability change, negative = cytotoxic: at 62.6 µM (top of the series); note: nearly all actives have a fitted effect of over 45% in size; note: potency is the fitted concentration of half-maximal effect
How it was run: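 In GeneBLAzer FXR-UAS-bla HEK 293T cells, compounds act for 16 h at 37 C. Cell viability is then scored in the reporter wells by CellTiter-Glo, 30 min at RT, luminescence.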

[13] = qHTS assay to identify small molecule agonists of the constitutive androstane receptor (CAR) signaling pathway - cell viability counter screen (AID 1224836); note: % is set by controls: 0 for no effect and ±100 for the full control effect; nearly all actives have a fitted effect of over 45% in size
How it was run: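 Fluorescence from CellTiter-Fluor indicates live cells after 23 h exposure. The human hepatoma line expresses hCAR and a CYP2B6-2.2kb reporter. Incubation medium contains 0.75 uM PK11195 (final).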

[14] = qHTS assay to identify small molecule antagonists of the progesterone receptor (PR) signaling pathway - cell viability counter screen (AID 1346798); note: nearly all actives have a fitted effect of over 50% in size; note: potency is the fitted concentration of half-maximal effect
How it was run: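 Viability was determined by ATP-based luminescence (CellTiter-Glo) in PR-UAS-bla HEK293T cells cultured in 2% charcoal-stripped serum and incubated 16 hr with compounds under R5020 stimulation.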

[15] = qHTS assay to identify small molecule agonists of the progesterone receptor (PR) signaling pathway - cell viability counter screen (AID 1346799; calls by dose curve; note: nearly all actives have a fitted effect of over 45% in size; note: potency is the fitted concentration of half-maximal effect)
How it was run: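 Viability was scored by ATP luminescence (CellTiter-Glo, 30 min, room temperature) in the same wells used for the reporter readout, after 16 hr compound exposure of PR-UAS-bla HEK293T cells.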

[16] = target: Cytochrome P450 3A4 (Homo sapiens) (UniProt P08684); assay: Cytochrome P450 Family 3 Subfamily A Member 4 (CYP3A4) small molecule antagonists: luciferase reporter qHTS assay (AID 1671201)
How it was run: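 Enzyme and proluciferin substrate are mixed with test chemicals for 10 min, then NADPH regeneration system drives turnover for 1 h at room temperature. A detection reagent halts the reaction; luminescence after 20 min gives relative activity.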

[17] = target: Peroxisome proliferator-activated receptor delta (Homo sapiens) (UniProt Q03181); assay: qHTS assay to identify small molecule antagonists of the peroxisome proliferator-activated receptor delta (PPARd) signaling pathway (AID 743215; active = well fitted inhibition curve with a large enough effect in the signal ratio in the repeat runs, not every such curve was filed as active; inconclusive = weak or mixed curves, or effect the other way; inactive = no such curve, though single readings can be large or run the other way; the % refers to the signal ratio;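 note: cells stimulated with agonist L165041 at 300 nM final during compound exposure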; note: potency is the fitted concentration of half-maximal effect); conditions: HEK293H PPARd-UAS-bla, beta-lactamase FRET ratio, antagonist, 17 h; ratio activity, negative = inhibition: at 62 µM (top of the series) unless noted
How it was run: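 Antagonist-mode beta-lactamase reporter screen: HEK293H cells with UAS-bla under PPARd control, stimulated by 300 nM L165041 (final) alongside test compound for 17 h at 37 C, then FRET fluorescence after 2 h substrate incubation.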

[18] = target: Nuclear receptor subfamily 1 group I member 3 (Homo sapiens) (UniProt Q14994); assay: qHTS assay to identify small molecule agonists of the constitutive androstane receptor (CAR) signaling pathway (AID 1224839); note: nearly all actives have a fitted effect of over 15% in size; note: potency is the fitted concentration of half-maximal effect
How it was run: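 Stable hCAR/CYP2B6-2.2kb HepG2 line in DMEM with 10% FBS; compounds (15 concentrations) and 0.75 uM PK11195 final, 24 h at 37 C/5% CO2, then ONE-Glo luminescence after 30 min.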

[19] = target: Thyrotropin receptor (Homo sapiens) (UniProt P16473); assay: qHTS assay to identify small molecule agonists of the thyroid stimulating hormone receptor (TSHR) signaling pathway (AID 1224843; calls by dose curve; note: % is set by controls: 0 for no effect and ±100 for the full control effect; nearly all actives have a fitted effect of over 45% in size); conditions: TSHR-HEK293 cells, cAMP HTRF, agonist mode, 30 min; activation: at 92.4 µM (top of the series) unless noted
How it was run: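 TSHR-HEK293 cells in agonist mode, 30 min room-temperature step, then cAMP measured by competitive HTRF (cAMP-d2 with anti-cAMP cryptate) after 1 h at room temperature. Tested at 15 concentrations in triplicate.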

[20] = qHTS assay to identify small molecule antagonists of the sonic hedgehog signaling (Shh) pathway (AID 1259369; calls by dose curve)
How it was run: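 Screening used 3T3Gli1-Luc cells at 2,000 per well, compounds delivered in DMSO, and conditioned medium as agonist stimulus; plates incubated 24hr at 37 C and 5% CO2 before a 30min luciferase step.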
Tags give direction and shape of the fitted curve or compound fluorescence and quenching.

UniProt Q03181, sequence (Q03181 whole entry, looked up): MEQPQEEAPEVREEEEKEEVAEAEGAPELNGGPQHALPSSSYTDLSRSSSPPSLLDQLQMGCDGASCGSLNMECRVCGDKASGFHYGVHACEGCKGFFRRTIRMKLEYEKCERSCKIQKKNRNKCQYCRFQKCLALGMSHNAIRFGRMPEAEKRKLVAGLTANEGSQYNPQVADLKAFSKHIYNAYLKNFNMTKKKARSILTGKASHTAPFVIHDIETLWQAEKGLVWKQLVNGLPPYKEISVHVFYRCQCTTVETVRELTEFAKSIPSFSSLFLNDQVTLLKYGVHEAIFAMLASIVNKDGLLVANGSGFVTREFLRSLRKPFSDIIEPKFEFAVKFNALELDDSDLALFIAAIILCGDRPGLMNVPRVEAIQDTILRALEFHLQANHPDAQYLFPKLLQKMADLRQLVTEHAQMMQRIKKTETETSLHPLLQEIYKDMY
UniProt Q14994, sequence (Q14994 whole entry, looked up): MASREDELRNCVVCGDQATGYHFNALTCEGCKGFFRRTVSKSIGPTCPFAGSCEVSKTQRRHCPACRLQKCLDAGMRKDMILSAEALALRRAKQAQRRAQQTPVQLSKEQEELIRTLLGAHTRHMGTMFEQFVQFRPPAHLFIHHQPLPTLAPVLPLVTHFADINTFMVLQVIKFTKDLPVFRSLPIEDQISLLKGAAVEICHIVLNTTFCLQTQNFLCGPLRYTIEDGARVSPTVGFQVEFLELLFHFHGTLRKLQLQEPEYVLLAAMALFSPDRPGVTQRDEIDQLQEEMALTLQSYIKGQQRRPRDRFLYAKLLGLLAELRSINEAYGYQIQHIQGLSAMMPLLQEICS
UniProt P03372, sequence (P03372 whole entry, looked up): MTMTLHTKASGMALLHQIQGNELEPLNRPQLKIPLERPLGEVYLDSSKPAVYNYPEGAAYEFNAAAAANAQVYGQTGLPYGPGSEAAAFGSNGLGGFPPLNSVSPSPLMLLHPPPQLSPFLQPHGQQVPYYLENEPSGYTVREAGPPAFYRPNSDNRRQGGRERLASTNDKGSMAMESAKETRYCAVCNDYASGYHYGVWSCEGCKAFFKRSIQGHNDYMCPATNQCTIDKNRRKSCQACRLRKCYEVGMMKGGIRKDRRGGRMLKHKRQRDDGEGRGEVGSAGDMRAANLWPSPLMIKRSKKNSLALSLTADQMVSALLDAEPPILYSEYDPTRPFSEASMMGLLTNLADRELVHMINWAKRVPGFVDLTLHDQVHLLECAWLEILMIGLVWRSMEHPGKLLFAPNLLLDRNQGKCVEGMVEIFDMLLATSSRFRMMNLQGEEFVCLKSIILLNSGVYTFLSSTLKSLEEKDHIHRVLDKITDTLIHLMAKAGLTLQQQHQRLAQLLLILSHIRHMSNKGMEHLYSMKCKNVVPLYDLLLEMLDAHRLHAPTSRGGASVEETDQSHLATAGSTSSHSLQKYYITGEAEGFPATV
UniProt Q92731, sequence (Q92731 whole entry, looked up): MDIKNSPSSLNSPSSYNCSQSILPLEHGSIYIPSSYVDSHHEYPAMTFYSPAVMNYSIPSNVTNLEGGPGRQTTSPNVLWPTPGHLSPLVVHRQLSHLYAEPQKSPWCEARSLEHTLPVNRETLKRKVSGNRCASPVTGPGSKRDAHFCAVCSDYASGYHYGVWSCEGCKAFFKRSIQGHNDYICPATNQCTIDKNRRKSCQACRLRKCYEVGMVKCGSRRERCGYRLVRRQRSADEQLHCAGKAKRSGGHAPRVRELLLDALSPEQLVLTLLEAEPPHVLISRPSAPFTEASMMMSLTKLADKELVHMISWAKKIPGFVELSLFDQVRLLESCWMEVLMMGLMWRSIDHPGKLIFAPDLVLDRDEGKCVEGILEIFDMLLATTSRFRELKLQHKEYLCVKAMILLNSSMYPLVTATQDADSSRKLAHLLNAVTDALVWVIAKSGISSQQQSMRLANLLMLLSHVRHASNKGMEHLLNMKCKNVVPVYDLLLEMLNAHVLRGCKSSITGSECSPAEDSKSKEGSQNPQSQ
UniProt O75469, sequence (O75469 whole entry, looked up): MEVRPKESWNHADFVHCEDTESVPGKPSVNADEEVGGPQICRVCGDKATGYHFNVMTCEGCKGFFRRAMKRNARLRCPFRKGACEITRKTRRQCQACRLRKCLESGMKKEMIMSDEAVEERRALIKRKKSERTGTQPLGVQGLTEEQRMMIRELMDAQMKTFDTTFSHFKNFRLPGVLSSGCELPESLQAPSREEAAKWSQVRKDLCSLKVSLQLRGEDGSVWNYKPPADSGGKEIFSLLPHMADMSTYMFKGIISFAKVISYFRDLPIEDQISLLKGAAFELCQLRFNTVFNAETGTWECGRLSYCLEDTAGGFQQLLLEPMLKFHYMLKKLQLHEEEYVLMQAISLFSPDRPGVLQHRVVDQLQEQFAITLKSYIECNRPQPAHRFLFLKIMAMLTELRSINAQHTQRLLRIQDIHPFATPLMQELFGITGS
UniProt P08684, sequence (P08684 whole entry, looked up): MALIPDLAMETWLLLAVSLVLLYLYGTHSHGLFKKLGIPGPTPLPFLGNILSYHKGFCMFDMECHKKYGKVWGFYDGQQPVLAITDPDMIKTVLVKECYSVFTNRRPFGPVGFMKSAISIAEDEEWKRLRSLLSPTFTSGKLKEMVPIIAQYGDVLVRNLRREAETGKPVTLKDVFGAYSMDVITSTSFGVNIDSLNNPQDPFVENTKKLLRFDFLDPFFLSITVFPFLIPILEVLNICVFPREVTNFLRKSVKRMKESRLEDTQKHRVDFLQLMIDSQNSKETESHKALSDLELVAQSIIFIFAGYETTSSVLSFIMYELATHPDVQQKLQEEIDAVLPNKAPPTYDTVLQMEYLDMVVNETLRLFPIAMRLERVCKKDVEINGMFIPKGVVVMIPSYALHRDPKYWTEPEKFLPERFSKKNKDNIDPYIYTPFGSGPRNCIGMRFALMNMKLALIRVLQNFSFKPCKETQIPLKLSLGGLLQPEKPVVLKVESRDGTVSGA
UniProt P16473, sequence (P16473 whole entry, looked up): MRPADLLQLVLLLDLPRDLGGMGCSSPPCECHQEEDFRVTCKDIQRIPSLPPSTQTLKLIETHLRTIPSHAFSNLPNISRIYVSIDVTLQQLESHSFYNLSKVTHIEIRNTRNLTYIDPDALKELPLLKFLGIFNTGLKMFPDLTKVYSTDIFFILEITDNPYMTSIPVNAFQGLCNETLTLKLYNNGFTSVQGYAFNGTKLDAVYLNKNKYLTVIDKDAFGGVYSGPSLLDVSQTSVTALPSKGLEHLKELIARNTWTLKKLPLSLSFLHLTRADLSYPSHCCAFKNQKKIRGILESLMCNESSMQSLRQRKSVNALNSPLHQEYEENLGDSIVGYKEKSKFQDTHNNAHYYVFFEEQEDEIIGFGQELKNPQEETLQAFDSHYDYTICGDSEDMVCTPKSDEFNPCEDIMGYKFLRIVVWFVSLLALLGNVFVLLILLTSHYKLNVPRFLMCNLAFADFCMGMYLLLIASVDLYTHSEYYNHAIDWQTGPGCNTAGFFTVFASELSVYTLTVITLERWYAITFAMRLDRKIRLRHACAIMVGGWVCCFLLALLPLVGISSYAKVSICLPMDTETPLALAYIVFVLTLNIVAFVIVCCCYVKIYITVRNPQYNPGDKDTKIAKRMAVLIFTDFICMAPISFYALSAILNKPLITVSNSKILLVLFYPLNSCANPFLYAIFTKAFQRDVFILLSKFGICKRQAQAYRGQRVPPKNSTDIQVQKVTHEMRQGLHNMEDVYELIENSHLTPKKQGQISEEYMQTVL

Cn1c(-c2ccccc2)cc(-c2ccccc2)[n+]1C
Potency [1]: active: 4.32 µM and active: 2.43 µM
Potency [2]: inconclusive: 43.6 µM [rising, partial curve, poor fit]
Potency [3]: inconclusive: 19.5 µM [cytotoxic, partial curve, poor fit]
Potency [4]: inactive
Potency [5]: active: 8.69 µM and active: 24.5 µM
Potency [6]: inconclusive: 13.8 µM [cytotoxic, full curve] and inconclusive: 11 µM [cytotoxic, partial curve]
Potency [7]: inconclusive: 12.3 µM [cytotoxic, full curve] and inconclusive: 21.9 µM [cytotoxic, partial curve]
activation [8]: inconclusive: 2.92%
Potency [9]: inconclusive: 77 µM [cytotoxic, partial curve, poor fit]
Potency [10]: inconclusive: 68.5 µM [activator, partial curve, poor fit]

NC(=S)C(N)=S
Potency [11]: inactive
activity, negative = inhibition [2]: inconclusive: 10.7%
Potency [12]: inconclusive: 19.5 µM [rising, partial curve, poor fit]
Potency [13]: inactive
Potency [7]: inactive
Potency [8]: inactive
Potency [14]: inconclusive: 68.6 µM [rising, single point]
Potency [15]: inconclusive: 68.6 µM [rising, single point]
Potency [16]: inconclusive: 89.4 µM [inhibitor, partial curve, poor fit]

CNCC(O)c1ccc(O)cc1 (stereo not drawn)
Potency [17]: inconclusive: 1.09 µM [fluorescent, partial curve, poor fit]
ratio activity, negative = inhibition [17]: inconclusive: -3.4%
Potency [18]: inactive
Potency [9]: inactive
Potency [10]: inconclusive: 48.5 µM [activator, partial curve]

CC(C)[C@]12CC(=O)[C@H](C)[C@H]1C2
Potency [6]: inactive
Potency [14]: inconclusive: 76.6 µM [cytotoxic, partial curve, poor fit]

CCN(CC)CCN1C(=O)CN=C(c2ccccc2F)c2cc(Cl)ccc21
Potency [12]: inactive
Potency [19]: inactive
Potency [20]: inactive
Potency [15]: inconclusive: 0.668 µM [cytotoxic, single point]

[Cl][Sn]([Cl])([Cl])[Cl]
Potency [11]: inactive
Potency [1]: inactive
ratio activity, negative = inhibition [17]: inconclusive: 5.07% [at 80.4 µM]
Potency [18]: inactive
Potency [5]: inconclusive: 28.2 µM [rising, partial curve]
Potency [7]: inconclusive: 28.2 µM [rising, partial curve]

O=C(O)Cc1ccccc1
Potency [2]: inactive
Potency [18]: inconclusive: 34.4 µM [activator, partial curve] and inactive
Potency [20]: inactive

O=[N+]([O-])c1ccc([As](=O)(O)O)cc1
Potency [12]: inactive
Potency [3]: inactive
Potency [4]: inconclusive: 1.79 µM [cytotoxic, single point]
Potency [6]: inconclusive: 38.9 µM [rising, partial curve, poor fit]
Potency [7]: inconclusive: 38.9 µM [rising, partial curve, poor fit]
Potency [15]: inactive

CCCC1CCCCN1 (stereo not drawn)
Potency [11]: inactive
Potency [14]: inconclusive: 2.98 µM [cytotoxic, single point]

CC(C)CCCCCCCOC(=O)c1ccccc1C(=O)OCCCCCCCC(C)C
Potency [3]: inconclusive: 21.9 µM [cytotoxic, partial curve, poor fit]
Potency [15]: inconclusive: 0.0109 µM [cytotoxic, single point]

OCCOCCO
Potency [2]: inconclusive: 56.6 µM [rising, partial curve, poor fit]
Potency [17]: inactive
Potency [13]: inactive

CCOP(=S)(Oc1ccc([N+](=O)[O-])cc1)c1ccccc1 (stereo not drawn)
Potency [1]: inconclusive: 12.2 µM [cytotoxic, partial curve, poor fit]
Potency [12]: inconclusive: 5.49 µM [rising, full curve]
Potency [18]: inconclusive: 10.9 µM [activator, full curve, poor fit]
Potency [4]: inconclusive: 28.4 µM [cytotoxic, partial curve]
Potency [8]: inactive
Potency [14]: inactive

— PubChem BioAssay (Tox21)
